Laboratory results from PubChem BioAssay AID485344 (National Center for Advancing Translational Sciences (NCATS), 2010).
Hit rate of the full screen: of about 340,000 compounds, about 6,900 (2%) were called active. Rule as the data show it: active = inhibition above about 30%; inactive = below that, where a call was filed. Only a part is listed here, and it is no random draw. The source gives no active or inactive call for entries shown without one.
Also: 0% is about no effect.

What follows are compounds tested against D(2) dopamine receptor (Homo sapiens) (UniProt P14416) (assay: HTS Assay for Allosteric Antagonists of the Human D2 Dopamine Receptor: Primary Screen for Antagonists). Conditions: HEK293 TREx D2 cells, calcium flux, dopamine EC80; at 10 µM; stronger effect = higher value.
Sequence of UniProt P14416 (P14416 whole entry, looked up): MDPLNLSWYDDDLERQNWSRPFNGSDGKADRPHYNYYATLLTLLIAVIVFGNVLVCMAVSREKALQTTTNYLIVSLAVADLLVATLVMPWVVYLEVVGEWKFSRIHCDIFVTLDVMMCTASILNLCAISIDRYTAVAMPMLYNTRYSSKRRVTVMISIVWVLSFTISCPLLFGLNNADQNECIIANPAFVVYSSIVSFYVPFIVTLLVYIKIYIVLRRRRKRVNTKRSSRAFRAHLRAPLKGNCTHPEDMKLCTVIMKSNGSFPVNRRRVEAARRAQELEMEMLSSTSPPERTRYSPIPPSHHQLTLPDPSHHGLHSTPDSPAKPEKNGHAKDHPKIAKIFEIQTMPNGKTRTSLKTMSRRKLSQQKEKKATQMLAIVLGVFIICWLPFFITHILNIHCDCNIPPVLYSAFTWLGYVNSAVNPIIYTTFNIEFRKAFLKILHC
In short: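 Tetracycline-induced HEK293 TREx cells expressing D2 receptor forced-coupled to calcium signalling, loaded with no-wash calcium dye. Compounds added and calcium flux read 180 s, then dopamine added at EC80 and read a further 180 s.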
In the case of COc1ccccc1CNc1ccc(-c2nc(-c3ccco3)no2)cc1[N+](=O)[O-], the inhibition is reported as 8.1%. Work on Cc1cccc2c(=O)cc(CSc3ccccc3NC(=O)c3cccc(F)c3)[nH]c12 yielded an inhibition of -9.45%. For CCOc1ccc(C(=O)c2c(N)c(-c3nc(-c4ccc5c(c4)OCO5)cs3)c3ccccn23)cc1, the inhibition was -1.56%. Work on COC(=O)Cn1c(=O)c2cccn2c2cccnc21 yielded an inhibition of 4.56%. Compound Cc1ccsc1CN(C(=O)c1oc2cc(Br)ccc2c1C)C1CCS(=O)(=O)C1 (stereo unspecified) has an inhibition of 4.76%. O=C(Nc1nc2c(s1)CN(Cc1ccccc1)CC2)C1CCC1 was tested, and the inhibition was active: 51.4%. In the case of Cc1cc(C(=O)Nc2ccc(C(C)C)cc2)c2c(C)nn(-c3ccccc3)c2n1, the inhibition is reported as 12.3%. CCOC(=O)c1c(-c2ccccc2)csc1NC(=O)c1cc(-c2ccc(F)cc2)on1 showed an inhibition of -18%. CC(C)n1cnc(S(=O)(=O)N2CCCC(C(=O)NCc3ccccc3Cl)C2)c1 (stereo unspecified) showed an inhibition of 7.46%. Work on CC(C)NC(=O)C1CCC(Cn2c(=O)c3sccc3n(CC(=O)NCc3ccccc3)c2=O)CC1 (stereo unspecified) yielded an inhibition of -5.39%. Compound CCCOc1c(Cl)cc(C(=O)N(Cc2cccc(OC)c2)C2CCS(=O)(=O)C2)cc1Cl (stereo unspecified) has an inhibition of -15.7%. Work on CCOc1ccc(NC(=O)c2cnc(N3CCCCC3)c3ccccc23)cc1 yielded an inhibition of -9.01%. In the case of CC1CCc2nc3ncn(Cc4ccccc4F)c(=O)c3cc2C1 (stereo unspecified), the inhibition is reported as 10%. Compound O=C(Nc1ccc(OCc2cc(=O)n3c4c(sc3n2)CCCC4)cc1)c1ccccc1 has an inhibition of -4.19%. CCOc1ccc(OCC)c(NS(=O)(=O)c2c(C(=O)N3CCC(C)CC3)c(C)n(C)c2C)c1 gave an inhibition of 2.11%. In the case of CCOc1ccc(NC(=O)CN(c2ccc(Cl)cc2C)S(=O)(=O)c2ccccc2)cc1, the inhibition is reported as -13.3%. For COc1ccc(N2CC(NC(=O)c3ccc4c(c3)OCO4)CC2=O)cc1 (stereo unspecified), the inhibition was 20.9%. Cc1ccc(-n2c(SCC(=O)O)nc3sc4c(c3c2=O)CCCC4)cc1 showed an inhibition of -3.16%. Cn1cc(C(=O)N2CCN(c3cccc(C(F)(F)F)c3)CC2)c2c3ccccc3n(C)c2c1=O showed an inhibition of 9.01%. CC(=O)Nc1ccc(NC(=O)Cn2nc(C(=O)Nc3ccc(C)cc3)ccc2=O)cc1 gave an inhibition of -19.7%. CCCOc1ccc(Oc2nc(NCC(C)C)nc(N3CCOCC3)n2)nn1 gave an inhibition of -10.5%. For COc1ccccc1N1CCN(c2nc(-c3ccc(C)cc3)nc3ccccc23)CC1, the inhibition was -7.69%. COc1cccc(NC(=O)C2CCCN(S(=O)(=O)c3ccc4[nH]c(=O)ccc4c3)C2)c1 (stereo unspecified) was tested, and the inhibition was -6.32%. Work on COc1cc(NC(=O)COCc2cc(-c3ccc(F)cc3)on2)cc(OC)c1OC yielded an inhibition of 6.33%. With Cc1ccc(C(=O)Nc2cc3c(cc2N2CCCC2)n(C)c(=O)c(=O)n3C)cc1 the inhibition was -12.2%. For Cc1nn(C(C)(C)C)c(OC(=O)C(C)(C)C)c1Sc1ccccc1, the inhibition was 0.56%.
